Test results from PubChem BioAssay AID1645887 (National Center for Advancing Translational Sciences (NCATS), 2021).
Several values for one entry are separate records, joined by “and”; a condition that tells them apart may be missing. Equal entries are not always repeated. Among all 16,000 compounds or so, about 40 (0.2%) were called active. Inconclusive results (about 1%) are left out. The call rests on the fitted dose curve; in most records, active means well fitted activation curve with a large enough effect; inconclusive means small, poorly fitted or top-dose-only effect, or another doubt; inactive means no such curve, though single readings can be large or run the other way. The list shows a part of the results.

These compounds were tested against Rap guanine nucleotide exchange factor 4 (Homo sapiens) (UniProt Q8WZA2) (assay: Validation qHTS for agonist of cAMP-regulated guanine nucleotide exchange factor 4 (EPAC2)). Conditions: EPAC2 Rap1B BODIPY-GDP exchange, fluorescence; activation: stronger effect = higher value.
UniProt Q8WZA2, sequence (Q8WZA2 whole entry, looked up): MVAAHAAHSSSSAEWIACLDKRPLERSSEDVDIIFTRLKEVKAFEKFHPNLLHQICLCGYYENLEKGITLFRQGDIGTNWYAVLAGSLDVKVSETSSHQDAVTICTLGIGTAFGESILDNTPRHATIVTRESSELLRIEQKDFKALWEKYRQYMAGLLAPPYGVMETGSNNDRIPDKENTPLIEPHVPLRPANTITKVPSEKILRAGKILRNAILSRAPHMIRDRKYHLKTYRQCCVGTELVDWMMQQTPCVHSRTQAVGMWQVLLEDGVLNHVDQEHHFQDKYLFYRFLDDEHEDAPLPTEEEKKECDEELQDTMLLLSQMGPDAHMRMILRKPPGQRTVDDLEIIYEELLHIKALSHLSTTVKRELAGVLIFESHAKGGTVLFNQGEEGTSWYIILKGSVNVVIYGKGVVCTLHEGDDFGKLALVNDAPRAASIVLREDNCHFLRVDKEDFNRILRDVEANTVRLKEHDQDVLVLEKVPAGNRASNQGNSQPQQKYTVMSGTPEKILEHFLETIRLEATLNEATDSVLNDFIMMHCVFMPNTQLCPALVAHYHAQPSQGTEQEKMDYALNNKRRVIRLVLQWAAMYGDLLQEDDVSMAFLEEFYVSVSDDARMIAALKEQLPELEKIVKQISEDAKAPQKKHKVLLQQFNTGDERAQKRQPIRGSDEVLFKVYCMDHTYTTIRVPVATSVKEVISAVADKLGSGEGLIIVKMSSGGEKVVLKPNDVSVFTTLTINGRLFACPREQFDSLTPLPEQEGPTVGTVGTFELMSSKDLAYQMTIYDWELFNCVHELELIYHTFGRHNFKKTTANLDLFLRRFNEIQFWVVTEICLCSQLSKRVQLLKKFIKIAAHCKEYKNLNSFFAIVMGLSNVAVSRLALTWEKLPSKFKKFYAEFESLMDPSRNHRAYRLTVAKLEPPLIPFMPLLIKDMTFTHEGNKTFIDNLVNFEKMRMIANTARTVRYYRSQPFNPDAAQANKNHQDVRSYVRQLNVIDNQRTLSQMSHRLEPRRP
Text: Principle Investigator: Xiaodong Cheng Ph.D.
The University of Texas Medical Branch, […], TX
In multi-cellular eukaryotic organisms, the effects of cAMP are transduced by two ubiquitously-expressed intracellular cAMP receptors, the classic protein kinase A/cAMP-dependent protein kinase (PKA/cAPK) and the more recently discovered exchange protein directly activated by cAMP/cAMP-regulated guanine nucleotide exchange factor (EPAC/cAMP-GEF). Both PKA and EPAC are ubiquitously expressed in all tissues, and an increase in intracellular cAMP levels will lead to the activation of both PKA and EPAC. Therefore, careful dissections of the individual role and relative contribution of EPAC and PKA within the overall cAMP signaling in various model systems are critical for further elucidating the mechanism of cAMP signaling. To date no EPAC-specific antagonists and agonist, as well as isoform-specific agonists have been reported, and developing EPAC-specific pharmacological probes to determine the physiological functions that EPAC play in the overall cAMP-mediated signaling remains a major challenge within the research field. Furthermore, identified regulators of EPAC may lead to new mechanism-based therapeutic strategies specifically targeting the EPAC / cAMP-signaling components as EPAC has been implicated to play important roles in major human pathological conditions such as diabetes, heart disease, and cancer.
This qHTS will be used to screen the Molecular Libraries Small Molecule Repository (MLSMR) as a concentration-titration series using the NCGC unique quantitative screening (qHTS) platform to find activators for EPAC1. In addition, this assay will also be used as a counterscreen for the EPAC2 qHTS. This fluorescent based assay is developed and validated for EPAC1 that measures exchange using EPAC effector Rap1 complex with BODIPY-GDP, a GDP analog with a tethered fluorophores. Activators are identified by monitoring the change in fluorescence signal as the exchanged free BODIPY-GDP has a reduced fluorescence compared to Rap1-bound BODIPY-GDP. Increase in signal (activation) is the desired outcome for the EPAC1 agonist while no activity in this assay is desired for the EPAC2 agonist counterscreen.
[1] de Rooij, J., Zwartkruis, F. J., Verheijen, M. H., Cool, R. H., Nijman, S. M., Wittinghofer, A., and Bos, J.L. (1998) Nature 396, 474-477.
Briefly, three uL of reagents (100 nM EPAC2, 250 nM RAP1B-BODIPY-GDP, 50 uM GDP) were dispensed into a 1536-well Greiner black solid-bottom medium binding assay plate. Controls and test compounds (23 nL) were transferred to the plate via a Kalypsys pin tool equipped with a 1536-pin array. The plates were centrifuged at 1,000 rpm for 15 seconds followed by 5 minute incubation at room temperature. The assay plates were read at 5 minute intervals for 30 minutes in the ViewLux plate reader using 480nm excitation and 540nm emission filters. The results were normalized to the agonist positive control of 6.5 mM cAMP.
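Further: exchange makes BODIPY-GDP fluorescence drop when released from Rap1B; series mostly up to about 150 µM.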
On the % scale 0 is the no-effect control and ±100 the full control effect.

| Structure (SMILES) | activation |
| --- | --- |
| CC1=CC(=O)c2c(O)cccc2C1=O | inactive: 6.77% and inactive: 8.9% |
| CN1CCc2cc(Cl)c(O)cc2[C@H]2c3ccccc3CC[C@@H]21 | inactive: -3.95% |
| O=C(Oc1ccccc1)N1CCC[C@@]2(CCN(Cc3cc(C(F)(F)F)cc(C(F)(F)F)c3)C2)C1 | inactive: -40% |
| Cc1ccccc1-n1c(C)nc2ccccc2c1=O | inactive: -2.95% and inactive: -13.8% |
| C[C@@]12CCC(OS(=O)(=O)O)C[C@@H]1CCC1C2CC[C@]2(C)C(=O)CCC12 (some centres undefined) | inactive: -14.6% |
| NCCc1ccc(S(=O)(=O)F)cc1 | inactive: -14.3% |
| CCCCCCCCCCCCCCCCOC[C@@H](COP(=O)([O-])OCC[N+](C)(C)C)OC(C)=O | inactive: -1.22% |
| C[C@H]1O[C@H](O[C@H]2[C@H](O)[C@@H](O)[C@@H](O)[C@H](O)[C@@H]2O)[C@@H](N)C[C@@H]1NC(=N)C(=O)O | inactive: -13% |
| C/C(O)=C(/C#N)C(=O)Nc1cc(Br)ccc1Br | inactive: -20.8% |
| CCN(CC)CCOC(=O)C(C)(c1ccccc1)c1ccccc1 | inactive: -0.23% |
| CNC(=O)O/N=C/C(C)(C)SC | inactive: -6.87% |
| NCC(=O)c1cccc([N+](=O)[O-])c1 | inactive: -19.2% |
| O=[N+]([O-])c1cc(O)c(O)c([N+](=O)[O-])c1 | inactive: -31.8% and inactive: -6.99% and inactive: -26.5% |
| CN[C@@H]1C[C@@H](c2ccc(Cl)c(Cl)c2)c2ccccc21 | inactive: -7.46% and inactive: -20.7% |
| O=C(O)Cc1cccnc1C(=O)O | inactive: -1.63% and inactive: -9.86% |
| Cc1ccc(-c2nc3ccc(C)cn3c2CC(=O)N(C)C)cc1 | inactive: -4.72% |
| Nc1nc(N)nc(NC2CC2)n1 | inactive: -7.71% |
| CN(C)CCN(C)CCc1ccc(Cl)c(Cl)c1 | inactive: -11.7% and inactive: 2.72% |
| Nc1ccc(N=Nc2ccccc2)cc1 | inactive: -19.5% |
| CCC12C=CCN3CCC4(c5ccc(OC)cc5N(C)C4[C@@](O)(C(=O)OC)C1OC(C)=O)C32 (some centres undefined) | inactive: -17.6% |
| CN[C@]1(c2ccccc2Cl)CCCCC1=O | inactive: 4.55% |
| C[C@H](N)CN1CCc2ccc(Br)cc21 | inactive: -31.5% |
| CC(=O)C1=C(O)C2C3c4c[nH]c5cccc(c45)CC3C(C)(C)N2C1=O (centres undefined) | inactive: -9.59% |
| N[C@@H](Cn1ccc(=O)[nH]c1=O)C(=O)O | inactive: -10.1% |
| CCCN(CCC)c1c([N+](=O)[O-])cc(C(F)(F)F)cc1[N+](=O)[O-] | inactive: -10.8% |
| C=CCN1CCC2(C)c3cc(O)ccc3C[C@H]1[C@H]2C | inactive: -15.1% |
| C=C(C)[C@H]1CN[C@H](C(=O)O)[C@H]1CC(=O)O | inactive: -7.86% and inactive: -10.8% |

| Structure (SMILES) | activation |
| --- | --- |
| NC1CC1c1ccccc1 (centres undefined) | inactive: -18.1% |
| c1cnc(N2CC[C@@]3(CCCNC3)C2)nc1 | inactive: -2.15% |
| CCC(C)(S(=O)(=O)CC)S(=O)(=O)CC | inactive: -3.66% |
| O=c1cccc2n1CC1CC2CN2CCCC[C@H]12 (some centres undefined) | inactive: 0.0153% |
| CC(C)N(C(=O)CCl)c1ccccc1 | inactive: -8.85% |
| C[C@H](N)Cc1cnc[nH]1 | inactive: -14.4% and inactive: -6.24% |
| CCC1(c2ccccc2)C(=O)NC(=O)N(C)C1=O (centres undefined) | inactive: -24.1% |
| CCCC(C)C1(CC)C(=O)N=C(S)NC1=O (centres undefined) | inactive: -24.8% and inactive: -11.6% |
| Nc1ccccc1C(=O)O | inactive: 15.6% |
| C=CC[C@]1(O)CC[C@H]2[C@@H]3CCC4=CCCC[C@@H]4[C@H]3CC[C@@]21C | inactive: 2.36% |
| CN(C)C1C(=O)C(C(N)=O)=C(O)[C@@]2(O)C(=O)C3=C(O)c4c(O)cccc4[C@@](C)(O)C3[C@H](O)C12 (some centres undefined) | inactive: -6.02% |
| CC1CC[C@]2(NC1)OC1CC3C4CC=C5CC(O)CC[C@@]5(C)C4CC[C@]3(C)C1C2C (some centres undefined) | inactive: 7.18% |
| c1ccc(CCCCN2CCC(c3ccccc3)CC2)cc1 | inactive: 0.412% and inactive: -9.46% |
| Cc1cc(O)ccc1Cl | inactive: -10.1% and inactive: -9.14% |
| COC1=CC2C3Cc4ccc(OC)c(O)c4[C@]2(CCN3C)CC1=O (some centres undefined) | inactive: 4.03% |
| CC1O[C@@H](OC2CC(O)[C@@]3(CO)C4C(O)C[C@@]5(C)C(C6=CC(=O)OC6)CC[C@]5(O)C4CC[C@]3(O)C2)C(O)C(O)C1O (some centres undefined) | inactive: 0.277% |
| CCCCC[C@@H](/C=C/C=C\CCCCCCCC(=O)O)OO | inactive: -7.62% |
| CN1Cc2ccccc2[C@@H]2c3cccc4[nH]cc(c34)C[C@H]21 | inactive: -13.4% and inactive: 3.97% |
| C=C[C@H]1CN2CC[C@H]1C[C@H]2[C@H](OC(=O)OCC)c1ccnc2ccc(OC)cc12 | inactive: -4.28% |
| O=C(N[C@H]1CN2CCC1CC2)c1ccc(Cl)cc1 | inactive: -22.2% |
| O=[N+]([O-])c1ccc2nc(N3CCNCC3)ccc2c1 | inactive: 5.31% and inactive: -96.9% |
| N[C@@]1(C(=O)O)CC[C@H](C(=O)O)C1 | inactive: -5.79% and inactive: 8.79% and inactive: -6.46% |
| C[C@H]1C[C@H](C)C(=O)[C@@H]([C@H](O)CC2CC(=O)NC(=O)C2)C1 | inactive: -11.3% |
| C[N+]1=Cc2cc3c(cc2CC1)OCO3 | inactive: -6.88% |
| C[C@]12C=CC(=O)C=C1CC[C@@H]1[C@@H]2CC[C@@]2(C)[C@H]1CC[C@]2(C)O | inactive: -8.19% |
| CC=C(C)C(=O)O[C@H]1C(C)=C2[C@@H]3OC(=O)[C@@](C)(O)[C@@]3(O)[C@@H](OC(=O)CCC)C[C@](C)(OC(C)=O)[C@@H]2[C@@H]1OC(=O)CCCCCCC | inactive: -41.4% |
| CN(C)C1C(=O)C(C(N)=O)=C(O)[C@@]2(O)C(=O)C3=C(O)c4c(O)cccc4[C@@](C)(O)C3C[C@@H]12 (some centres undefined) | inactive: 6.22% |
